Data published in the supplement of paper PMC12067230.
The data scatter; read single values as rough.

Assay: amyloid nucleation score relative to library mode (yeast Sup35 reporter selection) (log enrichment difference); higher = more amyloid nucleation; sequences are the first 22 residues of the Bri2 peptide extended by up to 12 random residues
Conditions: random library (experiment): 1;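 active = nucleation score significantly above 0 at FDR 0.05; inactive = not significantly above 0 or absent from output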
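Also: [psi-pin-] Saccharomyces cerevisiae expressing SupN fusions, induced by 100 µM Cu2SO4, selected 7 d at 30 °C without adenine and uracil, scored by deep sequencing of output versus input.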

Sequence | amyloid nucleation score
EASNCFAIRHFENKFAVETLICGAGNN | inactive
EASNCFAIRHFENKFAVETLICDS | inactive
EASNCFAIRHFENKFAVETLICGPRAWRSHVLRA | -0.28
EASNCFAIRHFENKFAVETLICRLQP | 1.49
EASNCFAIRHFENKFAVETLICWPETWCARSAIL | 4.11
EASNCFAIRHFENKFAVETLICPWIVSFLLTSVV | inactive
EASNCFAIRHFENKFAVETLICGSYLYGFPLIRQ | inactive
EASNCFAIRHFENKFAVETLICGIRHVHMGLERA | -0.0385
EASNCFAIRHFENKFAVETLICRVPCCPMVCVFI | inactive
EASNCFAIRHFENKFAVETLICCMLRWCDFTAER | 6.01
EASNCFAIRHFENKFAVETLICLGASNRRLANMN | 4.26
EASNCFAIRHFENKFAVETLICHVWVFESEMTWG | inactive
EASNCFAIRHFENKFAVETLICTVRGGCCRRSPT | 3.04
EASNCFAIRHFENKFAVETLICYLTDEYMFDLEG | inactive
EASNCFAIRHFENKFAVETLICKYVVGSVLVRGV | inactive
EASNCFAIRHFENKFAVETLICDCALGCKKGNIT | 7.21
EASNCFAIRHFENKFAVETLICRLTPRPRQPRRS | inactive
EASNCFAIRHFENKFAVETLICITSCFKTRFRDP | -0.258
EASNCFAIRHFENKFAVETLICLTSSYEVVWATG | inactive
EASNCFAIRHFENKFAVETLICHVEVAARPGGNA | 6.67

Sequence | amyloid nucleation score
EASNCFAIRHFENKFAVETLICLSSVWVIMGRTV | inactive
EASNCFAIRHFENKFAVETLICVHAADGYRMTPM | 3.19
EASNCFAIRHFENKFAVETLICFWRSGRTKYVLE | inactive
EASNCFAIRHFENKFAVETLICDLSGADGTTLPS | inactive
EASNCFAIRHFENKFAVETLICCTLSDNASGVQR | 7.79
EASNCFAIRHFENKFAVETLICRGTEMWQVATLA | inactive
EASNCFAIRHFENKFAVETLICGTRPTLVFFAPT | inactive
EASNCFAIRHFENKFAVETLICQVAGHVLKAMKR | 1.55
EASNCFAIRHFENKFAVETLICRPVGRSTGVVK | inactive
EASNCFAIRHFENKFAVETLICAWVGPVKPKGRG | inactive
EASNCFAIRHFENKFAVETLICNRLIDRNDYDVQ | inactive
EASNCFAIRHFENKFAVETLICRRFVRSLRNSDR | inactive
EASNCFAIRHFENKFAVETLICWAWVDLKRVTWV | -0.0755
EASNCFAIRHFENKFAVETLICFAWCQRRVQPMG | inactive
EASNCFAIRHFENKFAVETLICLKWSCRFNDALC | 3.44
EASNCFAIRHFENKFAVETLICYVPGRGCWCLRR | inactive
EASNCFAIRHFENKFAVETLICPDNTVRRPWVLG | inactive
EASNCFAIRHFENKFAVETLICQTGKCRLTVAAG | inactive
EASNCFAIRHFENKFAVETLICAIEESWATRLVE | inactive
EASNCFAIRHFENKFAVETLICWRRSWCGVLQDW | -0.0846

Sequence | amyloid nucleation score
EASNCFAIRHFENKFAVETLICWKFGNSVGTEGC | 2.7
EASNCFAIRHFENKFAVETLICLKRERYIYMWHA | inactive
EASNCFAIRHFENKFAVETLICRVCDRIY | inactive
EASNCFAIRHFENKFAVETLICWFGLGSRSYNQL | inactive
EASNCFAIRHFENKFAVETLICNADSLCPSQVDD | 1.35
EASNCFAIRHFENKFAVETLICEHRQVVTDDVAS | inactive
EASNCFAIRHFENKFAVETLICAH | inactive
EASNCFAIRHFENKFAVETLICYILVLCSRVRCR | inactive
EASNCFAIRHFENKFAVETLICKARMLGRIKPWS | inactive
EASNCFAIRHFENKFAVETLICNGLYYSSSRSNG | inactive
EASNCFAIRHFENKFAVETLICFRVFGLH | inactive
EASNCFAIRHFENKFAVETLICVTARWAWWREKR | inactive
EASNCFAIRHFENKFAVETLICTDTGHVSQSSEG | inactive
EASNCFAIRHFENKFAVETLICRKKAEVRQGRGA | inactive
EASNCFAIRHFENKFAVETLICWLWSISGAMCQA | inactive
EASNCFAIRHFENKFAVETLICDLYYVFERSTTR | inactive
EASNCFAIRHFENKFAVETLICWWRCKRRLATAL | inactive
EASNCFAIRHFENKFAVETLICPRTCSEGLVRL | inactive

Same assay, conditions: random library (experiment): 2

Sequence | amyloid nucleation score
EASNCFAIRHFENKFAVETLICMKVLMYCVDMYR | 2.5
EASNCFAIRHFENKFAVETLICCFSRFHIYASFV | inactive
EASNCFAIRHFENKFAVETLICIFVVDMKGEGRQ | 6.81
EASNCFAIRHFENKFAVETLICLFCVTLNVWGDV | 6.1
EASNCFAIRHFENKFAVETLICMNEILTNVRTVR | inactive
EASNCFAIRHFENKFAVETLICFILSVVWVMHDE | inactive
EASNCFAIRHFENKFAVETLICKIFNSYRFSVG | 5.62
EASNCFAIRHFENKFAVETLICFPFCFIYASVGR | 6.03
EASNCFAIRHFENKFAVETLICELLSWFGLNAIS | inactive
EASNCFAIRHFENKFAVETLICASFNG | 4.3
EASNCFAIRHFENKFAVETLICWSGMSFAVYY | inactive
EASNCFAIRHFENKFAVETLICVSCVSG | 6.13
EASNCFAIRHFENKFAVETLICFNNRTLVSNNQV | 3.87
EASNCFAIRHFENKFAVETLICLIKTSPVGCSSD | -0.148
EASNCFAIRHFENKFAVETLICTSVDAYASDYPS | inactive
EASNCFAIRHFENKFAVETLICCYLCAYIVSA | 4.82
EASNCFAIRHFENKFAVETLICRIINV | inactive
EASNCFAIRHFENKFAVETLICLMKTR | inactive
EASNCFAIRHFENKFAVETLICLAKVYHIVVFR | inactive
EASNCFAIRHFENKFAVETLICKTVSNKYNGVGL | -0.329
EASNCFAIRHFENKFAVETLICKY | inactive
EASNCFAIRHFENKFAVETLICQFAFSKNVRVGK | 3.26
EASNCFAIRHFENKFAVETLICDRRVRTVMQKSA | inactive
EASNCFAIRHFENKFAVETLICAVNYNMRGGCWY | 5.67
EASNCFAIRHFENKFAVETLICPSKV | inactive
EASNCFAIRHFENKFAVETLICVKHNFDAPVRHG | 3.46
EASNCFAIRHFENKFAVETLICDRGTRLDGLLRG | inactive
EASNCFAIRHFENKFAVETLICGCNV | inactive
EASNCFAIRHFENKFAVETLICVSGSYLGAKMGE | 3.11

Same assay, conditions: random library (experiment): 3

Sequence | amyloid nucleation score
EASNCFAIRHFENKFAVETLICRARQRLGMLGLR | inactive
EASNCFAIRHFENKFAVETLICNCWQPELLYWYG | 6.61
EASNCFAIRHFENKFAVETLICTRVEW | 2.37
EASNCFAIRHFENKFAVETLICRVETDWRWTVWD | 4.35
EASNCFAIRHFENKFAVETLICDFYRHMVGSLCV | inactive
EASNCFAIRHFENKFAVETLICVCSVRGIVMIWS | inactive
EASNCFAIRHFENKFAVETLICLVLCGPSMAPLG | 4.75
EASNCFAIRHFENKFAVETLICLQRIALH | 3.83
EASNCFAIRHFENKFAVETLICGSYWLLWKYKTR | inactive
EASNCFAIRHFENKFAVETLICQMSLAMGWCWRI | inactive
EASNCFAIRHFENKFAVETLICGLFM | 8.66
EASNCFAIRHFENKFAVETLICAKVSDPKFDRPQ | inactive
EASNCFAIRHFENKFAVETLICCCYGLR | 7.51
EASNCFAIRHFENKFAVETLICKRAYR | inactive
EASNCFAIRHFENKFAVETLICTGMRIEPLWETL | inactive
EASNCFAIRHFENKFAVETLICVAVC | inactive

Sequence | amyloid nucleation score
EASNCFAIRHFENKFAVETLICCRYWKSRAILCH | inactive
EASNCFAIRHFENKFAVETLICVSKLYVCRGCCA | inactive
EASNCFAIRHFENKFAVETLICANHVR | inactive
EASNCFAIRHFENKFAVETLICTGDA | 3.93
EASNCFAIRHFENKFAVETLICLPKHCSLLRTMV | inactive
EASNCFAIRHFENKFAVETLICWGLG | 7.16
EASNCFAIRHFENKFAVETLICWVSTVGCLAGKA | inactive
EASNCFAIRHFENKFAVETLICWNVTSH | 4.77
EASNCFAIRHFENKFAVETLICVAVQSSQMGSFV | inactive
EASNCFAIRHFENKFAVETLICADNVVNVPRGES | 6.73
EASNCFAIRHFENKFAVETLICYLCVTMLDGIPA | 1.48
EASNCFAIRHFENKFAVETLICDMFSDQYRAFAV | inactive
EASNCFAIRHFENKFAVETLICAHGSVYVPRYGQ | 8.25
EASNCFAIRHFENKFAVETLICVLGAQWLLATVM | 0.419
EASNCFAIRHFENKFAVETLICQPQGQYCDGWWR | 1.3
EASNCFAIRHFENKFAVETLICTCMGLVVLHQPS | 7.29
